Source: the supplement of paper PMC8728848
The list shows a part of the results.

Key:
Test in all cases: glycan array binding signal (z-score within array); higher = stronger binding
Conditions in all cases: glycan notation: IUPAC condensed, linker removed
[1] = molecular target: Neu5Ac(a2-6)Gal(b1-3)GlcNAc(b1-3)[Gal(b1-4)GlcNAc(b1-6)]Gal(b1-4)Glc
How it was run: (§1)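 Arrays were curated from the Consortium for Functional Glycomics database, 3228 in total, and kept only where the protein sequence was available. Binding is expressed as a within-array Z-score. This score was averaged across arrays of the same protein sequence at different concentrations or buffers and across linkers, and negative values can be read as non-binding.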

Neu5Ac(a2-6)Gal(b1-4)Glc = molecular target: Neu5Ac(a2-6)Gal(b1-4)Glc
How it was run: as §1

[2] = molecular target: Neu5Ac(a2-6)Gal(b1-4)GlcNAc
How it was run: as §1

[3] = molecular target: Neu5Ac(a2-6)Gal(b1-4)GlcNAc(b1-2)Man
How it was run: as §1

[4] = molecular target: Neu5Ac(a2-6)Gal(b1-4)GlcNAc(b1-2)Man(a1-3)Man(b1-4)GlcNAc(b1-4)GlcNAc
How it was run: as §1

[5] = molecular target: Neu5Ac(a2-6)Gal(b1-4)GlcNAc(b1-2)Man(a1-3)[Gal(b1-4)GlcNAc(b1-2)Man(a1-6)]Man(b1-4)GlcNAc(b1-4)GlcNAc
How it was run: as §1

[6] = molecular target: Neu5Ac(a2-6)Gal(b1-4)GlcNAc(b1-2)Man(a1-3)[GlcNAc(b1-2)Man(a1-6)]Man(b1-4)GlcNAc(b1-4)GlcNAc
How it was run: as §1

[7] = molecular target: Neu5Ac(a2-6)Gal(b1-4)GlcNAc(b1-2)Man(a1-3)[GlcNAc(b1-4)][Neu5Ac(a2-6)Gal(b1-4)GlcNAc(b1-2)Man(a1-6)]Man(b1-4)GlcNAc(b1-4)GlcNAc
How it was run: as §1

[8] = molecular target: Neu5Ac(a2-6)Gal(b1-4)GlcNAc(b1-2)Man(a1-3)[Man(a1-6)]Man(b1-4)GlcNAc(b1-4)GlcNAc
How it was run: as §1

[9] = molecular target: Neu5Ac(a2-6)Gal(b1-4)GlcNAc(b1-2)Man(a1-3)[Neu5Ac(a2-3)Gal(b1-4)GlcNAc(b1-2)Man(a1-6)]Man(b1-4)GlcNAc(b1-4)GlcNAc
How it was run: as §1

[10] = molecular target: Neu5Ac(a2-6)Gal(b1-4)GlcNAc(b1-2)Man(a1-3)[Neu5Ac(a2-6)Gal(b1-4)GlcNAc(b1-2)Man(a1-6)]Man(b1-4)GlcNAc(b1-4)GlcNAc
How it was run: as §1

[11] = molecular target: Neu5Ac(a2-6)Gal(b1-4)GlcNAc(b1-2)Man(a1-3)[Neu5Ac(a2-6)Gal(b1-4)GlcNAc(b1-2)Man(a1-6)]Man(b1-4)GlcNAc(b1-4)[Fuc(a1-6)]GlcNAc
How it was run: as §1

[12] = molecular target: Neu5Ac(a2-6)Gal(b1-4)GlcNAc(b1-2)Man(a1-6)Man(b1-4)GlcNAc(b1-4)GlcNAc
How it was run: as §1

[13] = molecular target: Neu5Ac(a2-6)Gal(b1-4)GlcNAc(b1-2)Man(a1-6)[Gal(b1-4)GlcNAc(b1-2)Man(a1-3)]Man(b1-4)GlcNAc(b1-4)GlcNAc
How it was run: as §1

[14] = molecular target: Neu5Ac(a2-6)Gal(b1-4)GlcNAc(b1-2)Man(a1-6)[GlcNAc(b1-2)Man(a1-3)]Man(b1-4)GlcNAc(b1-4)GlcNAc
How it was run: as §1

[15] = molecular target: Neu5Ac(a2-6)Gal(b1-4)GlcNAc(b1-2)Man(a1-6)[Man(a1-3)]Man(b1-4)GlcNAc(b1-4)GlcNAc
How it was run: as §1

[16] = molecular target: Neu5Ac(a2-6)Gal(b1-4)GlcNAc(b1-2)[Neu5Ac(a2-6)Gal(b1-4)GlcNAc(b1-4)]Man(a1-3)[GlcNAc(b1-4)][Neu5Ac(a2-6)Gal(b1-4)GlcNAc(b1-2)[Neu5Ac(a2-6)Gal(b1-4)GlcNAc(b1-6)]Man(a1-6)]Man(b1-4)GlcNAc(b1-4)GlcNAc
How it was run: as §1

[17] = molecular target: Neu5Ac(a2-6)Gal(b1-4)GlcNAc(b1-2)[Neu5Ac(a2-6)Gal(b1-4)GlcNAc(b1-4)]Man(a1-3)[GlcNAc(b1-4)][Neu5Ac(a2-6)Gal(b1-4)GlcNAc(b1-4)Man(a1-6)]Man(b1-4)GlcNAc(b1-4)GlcNAc
How it was run: as §1

[18] = molecular target: Neu5Ac(a2-6)Gal(b1-4)GlcNAc(b1-2)[Neu5Ac(a2-6)Gal(b1-4)GlcNAc(b1-6)]Man(a1-6)[Neu5Ac(a2-6)Gal(b1-4)GlcNAc(b1-2)Man(a1-3)][GlcNAc(b1-4)]Man(b1-4)GlcNAc(b1-4)GlcNAc
How it was run: as §1

[19] = molecular target: Neu5Ac(a2-6)Gal(b1-4)GlcNAc(b1-3)Gal(b1-3)GlcNAc
How it was run: as §1

[20] = molecular target: Neu5Ac(a2-6)Gal(b1-4)GlcNAc(b1-3)Gal(b1-4)GlcNAc
How it was run: as §1

[21] = molecular target: Neu5Ac(a2-6)Gal(b1-4)GlcNAc(b1-3)Gal(b1-4)GlcNAc(b1-2)Man(a1-3)[Neu5Ac(a2-6)Gal(b1-4)GlcNAc(b1-3)Gal(b1-4)GlcNAc(b1-2)Man(a1-6)]GalNAc
How it was run: as §1

[22] = molecular target: Neu5Ac(a2-6)Gal(b1-4)GlcNAc(b1-3)Gal(b1-4)GlcNAc(b1-3)Gal(b1-4)GlcNAc
How it was run: as §1

[23] = molecular target: Neu5Ac(a2-6)Gal(b1-4)GlcNAc(b1-3)Gal(b1-4)GlcNAc(b1-3)Gal(b1-4)GlcNAc(b1-2)Man(a1-3)[Neu5Ac(a2-6)Gal(b1-4)GlcNAc(b1-3)Gal(b1-4)GlcNAc(b1-3)Gal(b1-4)GlcNAc(b1-2)Man(a1-6)]GalNAc
How it was run: as §1

[24] = molecular target: Neu5Ac(a2-6)Gal(b1-4)GlcNAc(b1-3)Gal(b1-4)GlcNAc(b1-3)GalNAc
How it was run: as §1

[25] = molecular target: Neu5Ac(a2-6)Gal(b1-4)GlcNAc(b1-3)Gal(b1-4)GlcNAc(b1-3)[Neu5Ac(a2-6)Gal(b1-4)GlcNAc(b1-3)Gal(b1-4)GlcNAc(b1-6)]GalNAc
How it was run: as §1

[26] = molecular target: Neu5Ac(a2-6)Gal(b1-4)GlcNAc(b1-3)Gal(b1-4)GlcNAc(b1-6)[Gal(b1-3)]GalNAc
How it was run: as §1

[27] = molecular target: Neu5Ac(a2-6)Gal(b1-4)GlcNAc(b1-3)Gal(b1-4)[Fuc(a1-3)]GlcNAc(b1-3)Gal(b1-4)[Fuc(a1-3)]GlcNAc
How it was run: as §1

[28] = molecular target: Neu5Ac(a2-6)Gal(b1-4)GlcNAc(b1-3)GalNAc
How it was run: as §1

[29] = molecular target: Neu5Ac(a2-6)Gal(b1-4)GlcNAc(b1-3)[Neu5Ac(a2-6)Gal(b1-4)GlcNAc(b1-6)]GalNAc
How it was run: as §1

[30] = molecular target: Neu5Ac(a2-6)Gal(b1-4)GlcNAc(b1-6)GalNAc
How it was run: as §1

[31] = molecular target: Neu5Ac(a2-6)Gal(b1-4)GlcNAc(b1-6)[Gal(b1-3)GlcNAc(b1-3)]Gal(b1-4)Glc
How it was run: as §1

[32] = molecular target: Neu5Ac(a2-6)Gal(b1-4)GlcNAc(b1-6)[Gal(b1-3)]GalNAc
How it was run: as §1

[33] = molecular target: Neu5Ac(a2-6)Gal(b1-4)GlcNAc6S
How it was run: as §1

Neu5Ac(a2-6)GalNAc = molecular target: Neu5Ac(a2-6)GalNAc
How it was run: as §1

[34] = molecular target: Neu5Ac(a2-6)GalNAc(b1-4)GlcNAc
How it was run: as §1

[35] = molecular target: Neu5Ac(a2-6)GalNAc(b1-4)GlcNAc6S
How it was run: as §1

[36] = molecular target: Neu5Ac(a2-6)GlcNAc(b1-4)GlcNAc
How it was run: as §1

B1: PV12658A-bvu-496-32-496 (Bacteroides vulgatus) (protein)
chain: DLDGAITTPAAVELALNGIYYSLPGNGFNVIFPTVSGSFKAGTMWRQEIVSAGNAVYYSERMLPTLSFSDATEWDADYAVIKNANFLETACNRMSDGEFSGNRRAEVLGEIAYLRALAYFNILVRYCEFWDMNSEYGVVMRNEAPSVSNALKARSSVADSYQYILDQLEIAIEKAPDWKKLSQASKEAAKALKARVLLYAGKYTEAVAAVNDAIDTNSPLPEANYGDVFDKFSTTKEILFARVFDQKDATNTSTRQQCYGNSPTKKQGYWGPTNEYVELVGDDPRADAIFSKVDSLMDSRSSAVAYNLKSVKKLLNDANDMPVIFSRVSELYLIKAEALYRSGASISEAYAPIRKLRERAGAEIILPANNEELETAIFNEWMLELSFENWHEWFAMIRFAGYTEKPDFTRLLALNKTLREALEKEYEKSEAQGDNYYQRIIDRRIDAIPSSEISSNLECKQNPGY
glycan array binding signal (z-score) [1]: -0.171
glycan array binding signal (z-score) (Neu5Ac(a2-6)Gal(b1-4)Glc): -0.318
glycan array binding signal (z-score) [2]: -0.226
glycan array binding signal (z-score) [3]: -0.215
glycan array binding signal (z-score) [4]: -0.096
glycan array binding signal (z-score) [5]: -0.42
glycan array binding signal (z-score) [6]: -0.37
glycan array binding signal (z-score) [7]: -0.152
glycan array binding signal (z-score) [8]: -0.041
glycan array binding signal (z-score) [9]: -0.164
glycan array binding signal (z-score) [10]: -0.14
glycan array binding signal (z-score) [11]: -0.219
glycan array binding signal (z-score) [12]: 0.109
glycan array binding signal (z-score) [13]: -0.479
glycan array binding signal (z-score) [14]: 0.599
glycan array binding signal (z-score) [15]: -0.19
glycan array binding signal (z-score) [16]: 0.035
glycan array binding signal (z-score) [17]: -0.358
glycan array binding signal (z-score) [18]: 2.58
glycan array binding signal (z-score) [19]: -0.352
glycan array binding signal (z-score) [20]: -0.35
glycan array binding signal (z-score) [21]: 10.6
glycan array binding signal (z-score) [22]: -0.31
glycan array binding signal (z-score) [23]: 1.36
glycan array binding signal (z-score) [24]: -0.476
glycan array binding signal (z-score) [25]: -0.085
glycan array binding signal (z-score) [26]: -0.327
glycan array binding signal (z-score) [27]: 0.013
glycan array binding signal (z-score) [28]: -0.416
glycan array binding signal (z-score) [29]: -0.274
glycan array binding signal (z-score) [30]: -0.454
glycan array binding signal (z-score) [31]: 0.023
glycan array binding signal (z-score) [32]: 0.221
glycan array binding signal (z-score) [33]: -0.402
glycan array binding signal (z-score) (Neu5Ac(a2-6)GalNAc): -0.283
glycan array binding signal (z-score) [34]: -0.163
glycan array binding signal (z-score) [35]: -0.307
glycan array binding signal (z-score) [36]: -0.473
